The labels stand for the following.
B1: SIRT2, transfected (enzyme, UniProt Q8IXJ6 1-389)
chain: MAEPDPSHPLETQAGKVQEAQDSDSDSEGGAAGGEADMDFLRNLFSQTLSLGSQKERLLDELTLEGVARYMQSERCRRVICLVGAGISTSAGIPDFRSPSTGLYDNLEKYHLPYPEAIFEISYFKKHPEPFFALAKELYPGQFKPTICHYFMRLLKDKGLLLRCYTQNIDTLERIAGLEQEDLVEAHGTFYTSHCVSASCRHEYPLSWMKEKIFSEVTPKCEDCQSLVKPDIVFFGESLPARFFSCMQSDFLKVDLLLVMGTSLQVQPFASLISKAPLSTPRLLINKEKAGQSDPFLGMIMGLGGGMDFDSKKAYRDVAWLGECDQGCLALAELLGWKKELEDLVRREHASIDAQSGAGVPNPSTSASPKKSPPPAKDEARTTEREKPQ
B2: SIRT4, transfected (enzyme, UniProt Q9Y6E7 29-314)
chain: IGLFVPASPPLDPEKVKELQRFITLSKRLLVMTGAGISTESGIPDYRSEKVGLYARTDRRPIQHGDFVRSAPIRQRYWARNFVGWPQFSSHQPNPAHWALSTWEKLGKLYWLVTQNVDALHTKAGSRRLTELHGCMDRVLCLDCGEQTPRGVLQERFQVLNPTWSAEAHGLAPDGDVFLSEEQVRSFQVPTCVQCGGHLKPDVVFFGDTVNPDKVDFVHKRVKEADSLLVVGSSLQVYSGYRFILTAWEKKLPIAILNIGPTRSDDLACLKLNSRCGELLPLIDPC
B3: endogenous PLD1 (enzyme, UniProt Q13393 1-1074)
chain: MSLKNEPRVNTSALQKIAADMSNIIENLDTRELHFEGEEVDYDVSPSDPKIQEVYIPFSAIYNTQGFKEPNIQTYLSGCPIKAQVLEVERFTSTTRVPSINLYTIELTHGEFKWQVKRKFKHFQEFHRELLKYKAFIRIPIPTRRHTFRRQNVREEPREMPSLPRSSENMIREEQFLGRRKQLEDYLTKILKMPMYRNYHATTEFLDISQLSFIHDLGPKGIEGMIMKRSGGHRIPGLNCCGQGRACYRWSKRWLIVKDSFLLYMKPDSGAIAFVLLVDKEFKIKVGKKETETKYGIRIDNLSRTLILKCNSYRHARWWGGAIEEFIQKHGTNFLKDHRFGSYAAIQENALAKWYVNAKGYFEDVANAMEEANEEIFITDWWLSPEIFLKRPVVEGNRWRLDCILKRKAQQGVRIFIMLYKEVELALGINSEYTKRTLMRLHPNIKVMRHPDHVSSTVYLWAHHEKLVIIDQSVAFVGGIDLAYGRWDDNEHRLTDVGSVKRVTSGPSLGSLPPAAMESMESLRLKDKNEPVQNLPIQKSIDDVDSKLKGIGKPRKFSKFSLYKQLHRHHLHDADSISSIDSTSSYFNHYRSHHNLIHGLKPHFKLFHPSSESEQGLTRPHADTGSIRSLQTGVGELHGETRFWHGKDYCNFVFKDWVQLDKPFADFIDRYSTPRMPWHDIASAVHGKAARDVARHFIQRWNFTKIMKSKYRSLSYPFLLPKSQTTAHELRYQVPGSVHANVQLLRSAADWSAGIKYHEESIHAAYVHVIENSRHYIYIENQFFISCADDKVVFNKIGDAIAQRILKAHRENQKYRVYVVIPLLPGFEGDISTGGGNALQAIMHFNYRTMCRGENSILGQLKAELGNQWINYISFCGLRTHAELEGNLVTELIYVHSKLLIADDNTVIIGSANINDRSMLGKRDSEMAVIVQDTETVPSVMDGKEYQAGRFARGLRLQCFRVVLGYLDDPSEDIQDPVSDKFFKEVWVSTAARNATIYDKVFRCLPNDEVHNLIQLRDFINKPVLAKEDPIRAEEELKKIRGFLVQFPFYFLSEESLLPSVGTKEAIVPMEVWT

The chains behind the UniProt entries cited, without tags or fusion partners.
UniProt O14939: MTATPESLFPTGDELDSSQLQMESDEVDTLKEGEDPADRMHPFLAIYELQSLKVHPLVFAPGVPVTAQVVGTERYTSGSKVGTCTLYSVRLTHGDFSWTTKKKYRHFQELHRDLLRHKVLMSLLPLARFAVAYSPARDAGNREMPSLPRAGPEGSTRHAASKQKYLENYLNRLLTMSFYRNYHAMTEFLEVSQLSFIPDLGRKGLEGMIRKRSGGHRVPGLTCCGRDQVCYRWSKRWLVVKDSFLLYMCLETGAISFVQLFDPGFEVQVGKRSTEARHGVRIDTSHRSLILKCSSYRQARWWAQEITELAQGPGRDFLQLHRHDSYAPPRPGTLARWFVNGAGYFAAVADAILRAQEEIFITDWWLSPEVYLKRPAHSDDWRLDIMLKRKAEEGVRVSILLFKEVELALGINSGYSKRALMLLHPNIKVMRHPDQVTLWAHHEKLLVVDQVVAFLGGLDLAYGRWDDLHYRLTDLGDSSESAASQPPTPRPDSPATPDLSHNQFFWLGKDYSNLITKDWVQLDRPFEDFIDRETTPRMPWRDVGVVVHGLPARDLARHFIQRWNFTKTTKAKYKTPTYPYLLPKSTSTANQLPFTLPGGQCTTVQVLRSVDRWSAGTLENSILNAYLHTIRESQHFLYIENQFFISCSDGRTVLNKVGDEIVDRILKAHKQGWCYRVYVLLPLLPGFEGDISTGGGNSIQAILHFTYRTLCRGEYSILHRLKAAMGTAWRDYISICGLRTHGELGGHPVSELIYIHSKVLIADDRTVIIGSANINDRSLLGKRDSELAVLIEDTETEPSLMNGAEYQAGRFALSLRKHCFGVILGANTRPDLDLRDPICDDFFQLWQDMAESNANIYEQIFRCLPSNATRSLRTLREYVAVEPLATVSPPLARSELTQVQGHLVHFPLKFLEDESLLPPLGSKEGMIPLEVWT
UniProt Q8N6T7: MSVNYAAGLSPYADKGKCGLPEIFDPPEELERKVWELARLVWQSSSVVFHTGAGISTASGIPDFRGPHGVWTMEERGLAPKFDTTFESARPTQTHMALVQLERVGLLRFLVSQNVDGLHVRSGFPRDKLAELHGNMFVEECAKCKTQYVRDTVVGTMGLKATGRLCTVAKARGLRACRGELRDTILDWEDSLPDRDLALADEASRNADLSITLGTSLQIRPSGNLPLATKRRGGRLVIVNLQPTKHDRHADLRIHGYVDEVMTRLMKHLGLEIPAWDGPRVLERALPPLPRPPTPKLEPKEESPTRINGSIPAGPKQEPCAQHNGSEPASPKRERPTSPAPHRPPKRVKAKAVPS
UniProt Q9NRC8: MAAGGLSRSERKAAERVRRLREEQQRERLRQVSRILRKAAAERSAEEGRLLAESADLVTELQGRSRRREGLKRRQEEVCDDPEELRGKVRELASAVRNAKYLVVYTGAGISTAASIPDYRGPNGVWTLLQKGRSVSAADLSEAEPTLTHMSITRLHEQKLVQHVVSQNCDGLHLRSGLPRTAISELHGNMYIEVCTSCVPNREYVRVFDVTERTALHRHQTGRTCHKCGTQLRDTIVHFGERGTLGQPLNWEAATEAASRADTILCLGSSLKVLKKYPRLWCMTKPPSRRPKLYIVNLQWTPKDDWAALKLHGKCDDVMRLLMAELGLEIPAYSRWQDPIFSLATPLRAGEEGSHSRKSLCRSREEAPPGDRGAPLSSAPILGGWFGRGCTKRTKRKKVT
UniProt Q96EB6: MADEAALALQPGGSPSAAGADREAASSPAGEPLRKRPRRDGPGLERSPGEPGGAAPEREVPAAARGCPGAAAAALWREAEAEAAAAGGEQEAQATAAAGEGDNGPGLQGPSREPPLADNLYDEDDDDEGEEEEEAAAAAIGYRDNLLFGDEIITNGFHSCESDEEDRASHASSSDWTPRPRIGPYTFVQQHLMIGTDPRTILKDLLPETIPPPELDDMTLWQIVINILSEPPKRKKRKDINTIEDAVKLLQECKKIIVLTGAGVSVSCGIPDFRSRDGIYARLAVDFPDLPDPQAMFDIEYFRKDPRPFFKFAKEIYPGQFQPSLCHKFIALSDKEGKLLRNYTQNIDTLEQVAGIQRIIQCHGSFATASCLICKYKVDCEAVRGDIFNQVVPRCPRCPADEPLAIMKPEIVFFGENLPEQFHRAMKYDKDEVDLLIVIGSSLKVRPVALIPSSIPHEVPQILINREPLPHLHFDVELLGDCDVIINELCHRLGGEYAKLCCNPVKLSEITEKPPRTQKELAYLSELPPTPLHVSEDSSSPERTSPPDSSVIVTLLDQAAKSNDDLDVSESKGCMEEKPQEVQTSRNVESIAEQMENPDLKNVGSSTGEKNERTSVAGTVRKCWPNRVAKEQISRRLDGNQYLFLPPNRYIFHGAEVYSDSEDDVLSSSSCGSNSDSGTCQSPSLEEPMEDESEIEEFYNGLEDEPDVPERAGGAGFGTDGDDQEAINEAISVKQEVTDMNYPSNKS

No constants are given. Whether binding was seen depends on the method and setting. In cells and extracts the contact can be indirect. Some results given as binding are weak or reduced against the parent protein; the word gives no strength.

The first test addresses phospholipase D2 (PLD2), wild type, transfected (human) (UniProt O14939). Nature of the test: co-IP; HEK293 cells cotransfected with PLD2 and SIRT constructs (Fig. 1b, 2a, 2c); lysates immunoprecipitated and immunoblotted with the indicated antibodies. For orientation: Immunoblotting shows a protein as a band on a membrane.
In the case of “SIRT6, transfected (from UniProt Q8N6T7 1-355) (enzyme)”, the binding result was “no binding”.
The same measure, in the same setting: the same measure for “SIRT7, transfected (from UniProt Q9NRC8 1-400) (enzyme)”: “no binding”; for B1: “no binding”.
Same read-out and setting: the same measure for B2: “no binding”.

The target in another test is endogenous SIRT1 (human (endogenous in HCT116, HT29, A549)) (UniProt Q96EB6). Nature of the test: co-IP; endogenous proteins in colorectal cancer cells ('HT119', HT29) and A549 cells; immunoprecipitates captured by anti-SIRT1 and anti-PLD antibodies, nonimmune IgG as control.
Consider “endogenous PLD2 (from UniProt O14939 1-933) (enzyme)”, for which the binding entry is “binds”.
On to B3, for which the binding result is given as “no binding”.

Values taken from publication PMC8492672.
